# These are yes or no findings as the source states them, for the method shown. For part of these data: Binding seen in cells or lysates may run through a third protein. Some results given as binding are weak or reduced against the parent protein; the word gives no strength. For part of these data: Sequences can lack the tags named with a protein.
# Protein sequences, listed by entry. Tags and fused reporters are not part of them.
# UniProt B2RLE8: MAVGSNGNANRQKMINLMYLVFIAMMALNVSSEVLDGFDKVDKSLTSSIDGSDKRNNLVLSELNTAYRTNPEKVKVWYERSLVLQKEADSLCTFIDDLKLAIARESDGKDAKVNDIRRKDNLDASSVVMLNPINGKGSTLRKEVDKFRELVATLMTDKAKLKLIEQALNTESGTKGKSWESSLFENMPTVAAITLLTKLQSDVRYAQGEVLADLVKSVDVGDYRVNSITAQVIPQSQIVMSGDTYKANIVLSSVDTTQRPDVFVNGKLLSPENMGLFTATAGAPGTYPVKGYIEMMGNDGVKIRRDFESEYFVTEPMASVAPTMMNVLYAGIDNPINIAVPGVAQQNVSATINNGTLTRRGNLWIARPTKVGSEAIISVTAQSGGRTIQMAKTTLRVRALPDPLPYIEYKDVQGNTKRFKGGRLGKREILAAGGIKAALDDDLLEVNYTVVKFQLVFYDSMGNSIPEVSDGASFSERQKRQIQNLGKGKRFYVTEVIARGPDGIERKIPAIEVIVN
# T1: PorL, bacterial two-hybrid fusion (Porphyromonas gingivalis ATCC33277) (UniProt B2RLE9)
# T1 sequence: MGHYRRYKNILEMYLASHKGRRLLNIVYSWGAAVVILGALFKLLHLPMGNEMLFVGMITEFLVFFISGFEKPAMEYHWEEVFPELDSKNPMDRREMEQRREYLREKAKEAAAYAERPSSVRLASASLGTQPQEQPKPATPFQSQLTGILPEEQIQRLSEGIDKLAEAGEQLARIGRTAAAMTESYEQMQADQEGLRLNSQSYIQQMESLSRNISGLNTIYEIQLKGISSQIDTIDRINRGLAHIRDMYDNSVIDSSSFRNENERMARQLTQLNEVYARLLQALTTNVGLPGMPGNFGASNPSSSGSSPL
# T2: 6 x His-tagged sequence signal-less Peptidoglycan-associated lipoprotein (Pal) (E. coli) (UniProt P0A912)
# T2 sequence: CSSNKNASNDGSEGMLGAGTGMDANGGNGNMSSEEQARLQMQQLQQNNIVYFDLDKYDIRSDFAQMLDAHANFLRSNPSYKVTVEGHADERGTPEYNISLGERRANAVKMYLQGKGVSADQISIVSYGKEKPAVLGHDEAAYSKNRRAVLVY
# B1: PorX fused to the T18 domain of the Bordetella adenylate cyclase (protein, UniProt B2RJJ3 1-518)
# chain: MEKNMRPYTVLWADDEIDLLKPHILFLEQKGYQVTPVLSGNDAIEALQNNDFDIVFLDENMPGIGGLDALQKIKELKPYTPVVMITKSEEEHIMTQAIGGKIADYLIKPVNPNQLLLSLKKNLQQHSIISETTNTNYRQEFVQLGAQMSGKLSFEEWKELYRRIVFWEIELEQADRQMGELLEMQKQEANRLFARFVTQNYREWIAKPDTRPTMSPDLFKQKVFPLLDNGEKVFFILIDNFRQDQWESVKSMLSEFYTFEEDMYLSILPTATQYARNAIFSGLMPLQIEKMFPDLWVDEESEEGKNLNEEPMIRTLIERYRKHYSFSYNKVYETKFGERLLGQIRSLSQNQLNVIVLNFVDMMSHARTDSKMIRELASNEAAYRSLTKSWFKHSTTYNLFRSIAEMGYKVVLTTDHGTIQVKNPVKVIGDRSTNTNLRYKIGKNLDYNPKEVFEIKDPASVGLPHNNLSDKFIFTKEDDFFAYPNNYNYYVQYYRNTFQHGGISLEEMLVPVITMQPK
# B2: PorX produced in E. coli W3110 for co-immune-precipitation (protein, UniProt B2RJJ3 1-518)
# chain: B1 chain
# B3: purified untagged PorX (protein, UniProt B2RJJ3 1-518)
# chain: B1 chain
# Tests used:
# [1] = target: T1, PorL, bacterial two-hybrid fusion (Porphyromonas gingivalis ATCC33277); experiment: two-hybrid
# [2] = target: PorL_(CΔCt) (amino-acids 73-274), bacterial two-hybrid fusion (Porphyromonas gingivalis ATCC33277) (UniProt B2RLE9); experiment: two-hybrid
# [3] = target: PorM, bacterial two-hybrid fusion (Porphyromonas gingivalis ATCC33277) (UniProt B2RLE8); experiment: two-hybrid
# [4] = target: cytoplasmic domain of PorL (PorLC, amino-acids 73-309), bacterial two-hybrid fusion (Porphyromonas gingivalis ATCC33277) (UniProt B2RLE9); experiment: two-hybrid
# [5] = target: cytoplasmic domain of PorL (PorLC, amino-acids 73-309) produced in E. coli W3110 for co-immune-precipitation (Porphyromonas gingivalis ATCC33277) (UniProt B2RLE9); experiment: co-IP
# [6] = target: T2, 6 x His-tagged sequence signal-less Peptidoglycan-associated lipoprotein (Pal) (E. coli); experiment: pull-down; protein-protein co-purification; purified PorX mixed with 6 x His-tagged PorYC or Pal, applied to Co2+-NTA beads (Talon) in Tris-HCl 50 mM pH 8.0, NaCl 150 mM, 25°C 45 min, washes with imidazole 10 mM; SDS-PAGE and Coomassie blue staining; both purified
binder,measurement,setting,value
B1,binding,[1],binds
same,binding,[2],no binding
same,binding,[3],no binding
same,binding,[4],binds
B2,binding,[5],binds
B3,binding,[6],no binding
